The values below come from PubChem BioAssay AID1963576 (National Center for Advancing Translational Sciences (NCATS), 2024).

Hit rate of the full screen: of about 46,000 compounds, about 60 (0.1%) were called active. Roughly 3% stayed inconclusive and do not appear here. The call rests on the fitted dose curve; in most records, active means well fitted inhibition curve with a large enough effect; inconclusive means small, poorly fitted or top-dose-only effect; inactive means no such curve, though single readings can be large or run the other way. The list shows a part of the results.

A short description of this assay: Primary qHTS assay for Inhibitors of ovarian cancer metastasis using an organotypic tumor microenvironment (TME) model. Further: nearly all actives have a fitted effect of over 65% in size.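 On activity change, negative = inhibition: plate controls were DMSO wells for no effect and tomatine positive control wells for full effect.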 Conditions: SKOV3ip1-GFP adhesion/invasion on 3D omental model, fluorescence; series mostly up to 45.8 µM; activity change, negative = inhibition: at the top concentration. In short, it runs like this: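 A 3D layer of primary human omental fibroblasts, mesothelial cells, fibronectin and collagen I, grown 48 hr, received SKOV3ip1-GFP cells in serum-free medium plus compounds at 0.36-46 umol/L. After 2 hr RT and 16 hr 37 C, fixed adherent GFP cells were counted; normalized to DMSO and tomatine.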
On the technique in general: Quantitative high-throughput screening tests each substance at several concentrations.
In the case of `CC1=Nc2cc(C(=O)NC3CCCC3)ccc2Sc2ccc(C)cc21`, the “activity change, negative = inhibition” value was inactive: 9.35%. As for `CSc1ccc(CCNC(=O)CCCn2nc(C)c3sc4ccccc4c3c2=O)cc1`, the “activity change, negative = inhibition” value is inactive: -22.4%. As for `Cc1cccc(NC(=O)CN2C(=O)c3cccnc3Oc3ccc(Cl)cc32)c1C`, the “activity change, negative = inhibition” value was inactive: 3.91%. As to `CCc1cccc(CC)c1NC(=O)c1ccc2c(c1)CCN2S(=O)(=O)c1ccccc1`, the “activity change, negative = inhibition” value was inactive: 2.91%. On the same count and under the same terms, then `COc1ccccc1OCC(=O)N(Cc1ccc(Cl)cc1)CC1CCCO1` (stereo not drawn), with inactive: -9.97%; and `CC(=O)c1ccc(NC(=O)CC2Nc3cccc4cccc(c34)NC2=O)cc1` (stereo not drawn), with inactive: -21.4%. On the same count and under the same terms, the result for `CCOc1ccc(Oc2nc(NCC(C)C)nc(NC(C)(C)C)n2)nn1` reads inactive: 6.31%; that for `COc1cccc(NC(=O)CCc2c(C)nc3c4cccnc4nn3c2C)c1`, inactive: 2.94%; that for `O=C(Nc1ccc(N2CCC(c3ccccc3)C2)c(C(=O)O)c1)c1ccc(Cl)cc1` (stereo not drawn), inactive: -7.28%. `CCOc1ccc(CNC(=O)CCS(=O)(=O)c2cc3c(cc2Cl)NC(=O)CO3)cc1OC`: the “activity change, negative = inhibition” value is inactive: 3.88%. For `Cc1nn(-c2ccc(F)cc2)c(-n2cccc2)c1C(=O)NCCCN1CCN(c2ccccc2F)CC1`, the molecule was classed as inactive. On the same count and under the same terms, then `CCOC(=O)c1ccccc1NC(=O)Nc1cc2c(cc1N1CCCCC1)n(C)c(=O)n2C`, with “inactive”.

For the molecule `Cc1n[nH]c(C)c1S(=O)(=O)N(CC(=O)NC(C)c1ccccc1)c1ccc(C(C)C)cc1` (stereo not drawn), the “activity change, negative = inhibition” value was inactive: 32.4%.

For the molecule `Cc1ccc(NC(=O)Cn2c(=O)c3cc(Cl)ccc3n3nncc23)cc1`, the “activity change, negative = inhibition” value was inactive: -15.5%. Turning to `COc1cccc(NC(=O)Cn2cnc3c(nc4n3CCCCC4)c2=O)c1`, the “activity change, negative = inhibition” value is inactive: 14.1%. For the molecule `COc1ccc(C(=O)NCCn2cc(SCC(=O)NCCc3ccc(OC)c(OC)c3)c3ccccc32)cc1`, the call was inactive. Turning to `COCCCNC(=O)CN1C(=O)COc2ccc(S(=O)(=O)N3CCCC3)cc21`, the “activity change, negative = inhibition” value was inactive: -7.69%. For the molecule `COC(=O)CS(=O)(=O)c1nc2ccccc2nc1N1CCCCC1`, the “activity change, negative = inhibition” value was inactive: 3.69%. `CC(C)CCNC(=O)Nc1ccc2c(c1)N(C)C(=O)c1ccccc1S2`: the “activity change, negative = inhibition” value was inactive: -14.6%. Still for that read-out and setting: the result for `COCCCNc1ncnc2onc(-c3ccc(F)cc3)c12` reads inactive: 17.7%. Regarding `CS(=O)(=O)N1CCc2cc(C(=O)NCCc3ccccc3)ccc21`, the result was inactive. As to `Cc1ccc(-c2cc(C(=O)N3CCN(S(=O)(=O)c4ccc(Br)cc4)CC3)[nH]n2)cc1C`, the “activity change, negative = inhibition” value was inactive: -28.6%.

`CC1=C(c2ccc(C)c(C)c2)S(=O)(=O)N=C1N1CCC(C(=O)NCCc2ccco2)CC1`: the “activity change, negative = inhibition” value was inactive: -5.83%. Still for that read-out and setting: the result for `CCOc1ccc(NCc2cccn2-c2nnc(N3CCC(C(=O)NCCc4ccc(OC)c(OC)c4)CC3)s2)cc1` reads inactive: -0.982%. Consider `COc1ccc(N2CCN(C(=O)CCc3c(C)nc4cc(-c5ccc(Cl)cc5)nn4c3C)CC2)cc1`, for which the “activity change, negative = inhibition” value was inactive: 15.7%. On to `Cc1nc2ccccc2c(=O)n1-c1ccc(NC(=O)c2ccc([N+](=O)[O-])cc2)cc1`, for which the outcome was inactive.

For the molecule `COc1ccc(-c2[nH]nc3nc(-c4cc(OC)c(OC)c(OC)c4)cc(C(=O)O)c23)cc1`, the molecule was called inactive. `CCC(=O)NCC(c1ccc2c(c1)OCO2)N1CCN(c2ccccc2)CC1` (stereo not drawn): the “activity change, negative = inhibition” value is inactive: -11.6%. Consider `Cc1ccc2[nH]c(CSc3nnc(NC(=O)c4ccccc4C)s3)cc(=O)c2c1`, for which the “activity change, negative = inhibition” value is inactive: -10.8%. As for `CCCS(=O)(=O)N1CCCC(C(=O)NCCCOC)C1` (stereo not drawn), the call was inactive. As for `Cc1ccc(CCNC(=O)c2cn(C)c3ccc(S(=O)(=O)N4CCCCC4)cc3c2=O)cc1`, the “activity change, negative = inhibition” value was inactive: 19.9%. Same read-out and setting: then `COc1c(Cl)cc2c([nH]c3cnccc32)c1NC(=O)c1cccnc1C`, with inactive: -0.837%; and `COc1ccc(C(=O)Nc2nnc(S(=O)(=O)N(C)c3ccc(Cl)cc3)s2)cc1OC`, with inactive: -2.42%.

For `Cc1ccccc1CNC(=O)C(=O)NCC(c1ccco1)S(=O)(=O)c1ccccc1` (stereo not drawn), the result was inactive. Turning to `COc1cc(-c2nc3ncccn3c2Nc2ccc(C)cc2C)ccc1O`, the “activity change, negative = inhibition” value was inactive: -16.1%. As to `CCc1cccc(NC(=O)CCS(=O)(=O)c2cc(Br)cc3c2N(C(C)=O)CC3)c1`, the result was inactive. Turning to `O=C(CSc1nc2ccccc2nc1Cc1ccccc1)N1CCCCC1`, the “activity change, negative = inhibition” value was inactive: -0.955%. Consider `O=C(NCc1ccccc1Cl)c1cc2ccccc2o1`, for which the “activity change, negative = inhibition” value was inactive: 3.29%. On the same count and under the same terms, the result for `COc1cc(OC)cc(C(=O)Nc2ccc3c(c2)N(C2CCCC2)C(=O)c2ccccc2S3)c1` reads inactive: -0.457%; that for `CCOc1ccccc1NC(=O)Cn1cnc2sc(C)c(S(=O)(=O)N3CCC(C)CC3)c2c1=O`, inactive: 5.85%.

For `COc1cccc(Nc2c3c(nc4nncn24)CCC3)c1`, the “activity change, negative = inhibition” value is inactive: -3.83%. On to `Cc1cc(C)cc(-n2c(SCC(N)=O)nc3c(oc4ccccc43)c2=O)c1`, for which the outcome was inactive. As to `CCCCOc1cccc(C(=O)Nc2ccc3oc(-c4cccnc4)nc3c2)c1`, the “activity change, negative = inhibition” value was inactive: 4.61%. Same read-out and setting: then `Cc1ccc(C)c(N2CCN(S(=O)(=O)c3c(C)nc4sccn4c3=O)CC2)c1`, with inactive: 6.82%. For `CCOc1ccccc1NC(=O)N1CCN(Cc2nc3ccc(C)cc3o2)CC1`, the call was inactive. Consider `CCOc1ccc(-c2nnc(SCC(=O)NCc3ccccc3)nc2-c2ccc(OCC)c(OC)c2)cc1OC`, for which the “activity change, negative = inhibition” value was inactive: 33.5%. Still for that read-out and setting: the result for `CCc1ccc(C2CC(=O)Nc3c2c(C)nn3-c2nc(C)cc(C)n2)cc1` (stereo not drawn) reads inactive: 3.47%; that for `COc1cccc2cc(C(=O)NCCc3c(C)[nH]c4ccc(Br)cc34)c(=O)oc12`, inactive: -8.44%.
